According to publication PMC3709894:
Positions count from the first letter of the chain named. These are yes or no findings as the source states them, for the method shown. Binding seen in cells or lysates may run through a third protein. Some results given as binding are weak or reduced against the parent protein; the word gives no strength. For some assays here: Tags and fused reporters may be left off the sequences shown.

Columns and labels:
[1] = biological target: T1, Myc-Rad21 WT in pCS2MT (human), O60216; assay: co-IP; 293 T cells transfected with Myc-Rad21 WT or mutants; IP from whole cell lysate, blots of endogenous cohesin subunits including endogenous Rad21; conditions: remark: other sources report otherwise
T1 chain: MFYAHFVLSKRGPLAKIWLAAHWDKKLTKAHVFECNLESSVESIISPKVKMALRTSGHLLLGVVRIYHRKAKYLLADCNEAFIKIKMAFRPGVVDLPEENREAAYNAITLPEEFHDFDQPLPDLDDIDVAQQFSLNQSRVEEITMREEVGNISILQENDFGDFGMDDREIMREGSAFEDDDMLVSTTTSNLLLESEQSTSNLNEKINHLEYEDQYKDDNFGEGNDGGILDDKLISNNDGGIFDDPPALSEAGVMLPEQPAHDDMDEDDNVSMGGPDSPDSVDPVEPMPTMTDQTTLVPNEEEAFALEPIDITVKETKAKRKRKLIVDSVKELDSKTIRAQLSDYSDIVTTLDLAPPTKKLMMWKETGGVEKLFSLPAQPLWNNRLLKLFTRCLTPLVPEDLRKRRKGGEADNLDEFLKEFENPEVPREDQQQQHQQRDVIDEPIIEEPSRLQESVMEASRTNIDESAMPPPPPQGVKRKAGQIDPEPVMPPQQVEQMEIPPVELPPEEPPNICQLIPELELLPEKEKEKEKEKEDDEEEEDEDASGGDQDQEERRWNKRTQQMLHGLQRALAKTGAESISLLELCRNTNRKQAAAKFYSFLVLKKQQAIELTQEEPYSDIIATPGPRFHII

[2] = biological target: T2, Myc-Rad21 TM (L385A F389A T390A) in pCS2MT (human) (UniProt O60216); assay: as above
T2 sequence: T1 chain with L385A, F389A, T390A

[3] = biological target: T3, Myc-Rad21 Del (del(383–392 aa)) in pCS2MT (human) (UniProt O60216); assay: as above
T3 sequence: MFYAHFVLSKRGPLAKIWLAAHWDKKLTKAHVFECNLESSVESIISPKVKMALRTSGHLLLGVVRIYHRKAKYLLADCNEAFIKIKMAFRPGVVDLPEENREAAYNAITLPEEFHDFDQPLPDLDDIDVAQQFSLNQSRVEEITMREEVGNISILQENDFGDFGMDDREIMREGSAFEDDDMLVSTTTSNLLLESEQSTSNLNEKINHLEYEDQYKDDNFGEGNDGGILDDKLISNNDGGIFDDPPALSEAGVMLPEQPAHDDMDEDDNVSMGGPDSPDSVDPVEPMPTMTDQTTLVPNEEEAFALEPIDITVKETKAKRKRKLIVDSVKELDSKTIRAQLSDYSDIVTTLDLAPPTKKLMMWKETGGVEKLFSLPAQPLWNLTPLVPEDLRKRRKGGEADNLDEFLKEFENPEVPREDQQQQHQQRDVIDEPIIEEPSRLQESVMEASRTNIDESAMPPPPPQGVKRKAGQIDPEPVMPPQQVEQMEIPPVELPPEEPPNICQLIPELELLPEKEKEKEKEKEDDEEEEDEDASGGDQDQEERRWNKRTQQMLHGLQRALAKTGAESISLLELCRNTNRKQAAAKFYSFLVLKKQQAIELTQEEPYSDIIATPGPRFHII

[4] = biological target: T4, N-terminal fragment (1–172 aa) of Rad21 (Rad21 NT), expressed in 293 T cells (human) (UniProt O60216); assay: co-IP; 293 T cells transfected with differently tagged (Flag, HA) Rad21 NT, MP or CT fragments; IP from cell lysates 40 h after transfection; blots of the other copy and of endogenous proteins
T4 sequence: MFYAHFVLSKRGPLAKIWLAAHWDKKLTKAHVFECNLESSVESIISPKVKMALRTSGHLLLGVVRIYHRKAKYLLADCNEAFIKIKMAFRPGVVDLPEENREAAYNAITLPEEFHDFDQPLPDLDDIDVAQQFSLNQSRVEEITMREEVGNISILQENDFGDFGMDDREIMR

[5] = biological target: T5, middle part (173–450 aa) of Rad21 (Rad21 MP), expressed in 293 T cells (human) (UniProt O60216); assay: as above
T5 sequence: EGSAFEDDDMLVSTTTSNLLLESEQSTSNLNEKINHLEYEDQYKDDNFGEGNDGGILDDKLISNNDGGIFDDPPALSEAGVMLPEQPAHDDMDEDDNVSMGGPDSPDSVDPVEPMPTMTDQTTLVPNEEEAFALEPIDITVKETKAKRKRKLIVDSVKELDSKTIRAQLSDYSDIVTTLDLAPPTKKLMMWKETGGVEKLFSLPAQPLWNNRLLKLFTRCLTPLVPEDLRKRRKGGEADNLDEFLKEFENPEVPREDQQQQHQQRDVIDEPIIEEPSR

[6] = biological target: T6, Flag-Rad21 WT (full length) in pFlag CMV2 (human), O60216; assay: co-IP; 293 T cells co-expressing Flag- and Myc-tagged copies of Rad21 WT or of the same mutant; IP with Flag mAb or Myc pAb agarose beads; conditions: remark: other sources report otherwise
T6 chain: T1 chain

[7] = biological target: T7, Flag-Rad21 Del(383–392 aa), full length devoid of 383–392 aa (human) (UniProt O60216); assay: as above
T7 sequence: T3 sequence

[8] = biological target: T8, C-terminal fragment (451–631 aa) of Rad21 (Rad21 CT), expressed in 293 T cells (human) (UniProt O60216); assay: co-IP; 293 T cells transfected with differently tagged (Flag, HA) Rad21 NT, MP or CT fragments; IP from cell lysates 40 h after transfection; blots of the other copy and of endogenous proteins
T8 sequence: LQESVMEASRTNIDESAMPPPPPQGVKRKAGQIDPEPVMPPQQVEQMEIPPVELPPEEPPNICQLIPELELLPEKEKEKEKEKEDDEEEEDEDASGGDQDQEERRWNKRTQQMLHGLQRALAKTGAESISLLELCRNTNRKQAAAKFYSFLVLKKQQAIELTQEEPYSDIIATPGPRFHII

B1: endogenous Rad21, O60216 1-631 (protein)
chain: T1 chain
binding [1]: binds

B2: endogenous Rad21 (protein, UniProt O60216 1-631)
chain: T1 chain
binding [2]: binds | binding [3]: binds | binding [4]: binds | binding [5]: no binding

B3: Flag-Rad21 WT (full length) in pFlag CMV2, O60216 1-631 (protein)
chain: T1 chain
binding [6]: binds

B4: Flag-Rad21 Del(383–392 aa), full length devoid of 383–392 aa (protein, UniProt O60216)
chain: T3 sequence
binding [7]: binds

B5: C-terminal fragment (451–631 aa) of Rad21 (Rad21 CT), expressed in 293 T cells (domain or fragment, UniProt O60216 451-631)
chain: T8 sequence
binding [8]: no binding
